# Measurements from the supplement of paper PMC3334620.
# The full ranking holds about 33,000 sequences; the median of “E-score (-0.5 to 0.5)” is about -0.053, and the highest 2% start at about 0.37. The list shows a part of the results.
# Biological target: Hap1 (UniProt P0CE41)
# Assay: PBM E-score (8-mer binding enrichment) (E-score (-0.5 to 0.5)); higher = stronger / more preferred TF binding; most listed sequences are background and not binding sites
# Conditions: protein concentration: 200 nM; construct: GST-DNA-binding domain
# Method in brief: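 GST-tagged yeast TFs (full-length or DNA-binding domain) were made by PURExpress in vitro transcription/translation and applied at about 100-200 nM to universal all-10-mer Agilent arrays. The arrays were made double-stranded by primer extension, on fresh or once-stripped slides. Bound protein was detected with fluorescent anti-GST, and scans were normalised with masliner. Each ungapped eight-base word, pooled with its reverse complement, received an E-score (modified Wilcoxon-Mann-Whitney statistic) from the Universal PBM Analysis Suite.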
# UniProt P0CE41, sequence (P0CE41 whole entry): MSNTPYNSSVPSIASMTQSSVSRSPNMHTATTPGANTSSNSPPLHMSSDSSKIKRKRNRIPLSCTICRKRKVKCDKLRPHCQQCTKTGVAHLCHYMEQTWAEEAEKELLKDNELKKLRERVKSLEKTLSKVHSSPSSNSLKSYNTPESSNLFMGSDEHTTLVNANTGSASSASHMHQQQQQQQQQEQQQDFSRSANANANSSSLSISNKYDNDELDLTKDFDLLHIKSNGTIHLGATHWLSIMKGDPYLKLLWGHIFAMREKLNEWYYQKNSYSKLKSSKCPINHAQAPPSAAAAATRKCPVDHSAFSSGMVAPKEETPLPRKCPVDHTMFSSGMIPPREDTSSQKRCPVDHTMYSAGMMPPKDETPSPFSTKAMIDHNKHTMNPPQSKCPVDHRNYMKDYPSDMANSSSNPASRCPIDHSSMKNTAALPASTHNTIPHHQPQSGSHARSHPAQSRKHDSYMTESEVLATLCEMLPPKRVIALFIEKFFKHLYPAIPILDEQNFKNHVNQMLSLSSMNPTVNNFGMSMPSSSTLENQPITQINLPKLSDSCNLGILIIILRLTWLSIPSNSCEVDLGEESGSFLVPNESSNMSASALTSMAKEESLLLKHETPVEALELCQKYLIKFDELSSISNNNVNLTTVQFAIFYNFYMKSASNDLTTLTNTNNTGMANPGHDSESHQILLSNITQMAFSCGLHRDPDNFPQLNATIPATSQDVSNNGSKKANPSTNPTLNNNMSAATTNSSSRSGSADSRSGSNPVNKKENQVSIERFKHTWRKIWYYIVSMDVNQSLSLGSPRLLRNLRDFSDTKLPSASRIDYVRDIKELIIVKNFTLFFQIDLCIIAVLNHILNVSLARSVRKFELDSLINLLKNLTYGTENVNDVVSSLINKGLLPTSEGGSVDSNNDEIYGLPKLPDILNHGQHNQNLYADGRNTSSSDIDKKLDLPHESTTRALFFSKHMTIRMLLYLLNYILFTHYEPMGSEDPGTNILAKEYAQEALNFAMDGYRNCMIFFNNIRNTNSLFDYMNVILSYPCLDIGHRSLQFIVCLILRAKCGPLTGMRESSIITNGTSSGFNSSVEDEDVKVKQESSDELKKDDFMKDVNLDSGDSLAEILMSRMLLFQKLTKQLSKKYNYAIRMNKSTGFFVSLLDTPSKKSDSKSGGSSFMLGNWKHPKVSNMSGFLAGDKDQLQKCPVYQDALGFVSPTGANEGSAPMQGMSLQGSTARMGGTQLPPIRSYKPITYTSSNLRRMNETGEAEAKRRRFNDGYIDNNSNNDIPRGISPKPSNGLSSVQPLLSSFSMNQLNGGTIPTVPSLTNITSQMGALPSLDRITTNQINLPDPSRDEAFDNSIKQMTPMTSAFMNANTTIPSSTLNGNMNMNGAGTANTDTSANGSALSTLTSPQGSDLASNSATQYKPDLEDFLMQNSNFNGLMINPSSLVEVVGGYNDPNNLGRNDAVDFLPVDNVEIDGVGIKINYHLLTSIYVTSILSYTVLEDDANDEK
row,Sequence,PBM E-score
1,CCAACATC,0.144
2,AAACGAGC,-0.144
3,ACACGTCT,-0.172
4,ATTCACCA,-0.11
5,CTTGTACA,-0.293
6,CTACACCA,-0.157
7,AGTTTAAT,-0.0331
8,TCTTGGCA,-0.15
9,AATCTAAG,-0.242
10,AAACCGCT,0.0657
11,ACATGGTC,-0.231
12,CCTGAGCC,-0.283
13,AGGGGTGG,-0.0532
14,GATCAAGC,-0.0163
15,CAAGACTG,-0.233
16,CATCCGTA,0.2
17,GAGCACCA,-0.196
18,CACACGTG,-0.236
19,CCGCCAAG,0.0205
20,CGCCTGGC,-0.0355
21,ACAAGACG,-0.0566
22,CGACTTAA,-0.169
23,CGAACTGC,0.0235
24,GGCAATAA,0.303
25,CTCCTGCC,0.0153

row,Sequence,PBM E-score
1,AGAAACTG,-0.0846
2,TGTCGAAA,-0.229
3,AGTAAGGG,0.133
4,ATCTAGTG,-0.178
5,CAGATTGA,-0.0798
6,CAATAGTG,0.0993
7,GGTGGAGA,-0.103
8,GGAAAGCA,-0.0191
9,CTGGTGAC,-0.288
10,ACCCTGCC,0.00442
11,GGCTCGCA,-0.0127
12,ATTGGAAG,-0.0102
13,GCACAATA,-0.138
14,GATGCGAA,-0.0227
15,ATGTATCC,0.161
16,CCGATTTA,0.344
17,ACCTAAGA,-0.255
18,ACAAATCT,-0.072
19,ATACCATG,-0.115
20,AGGAATAA,-0.0441
21,TCTAGGAA,-0.272
22,GAGAAAGA,0.0531
23,AGCCATCA,-0.165
24,GACTGAAA,-0.0964
25,CGAAAACC,0.212

row,Sequence,PBM E-score
1,AATATTAT,0.172
2,CGTTAACC,0.132
3,GAACAGCC,-0.0942
4,ACATTCGG,0.278
5,CACTTGGA,-0.0892
6,ACTAGTAA,-0.217
7,AGAGTCAC,-0.294
8,CAGGTAGG,-0.0966
9,AGATACTA,0.163
10,AGGCCCTA,0.00667
11,GAGCAAAA,-0.17
12,CACTACGC,-0.167
13,ATCCAGGA,-0.174
14,TGACTACA,-0.287
15,AACCATAC,-0.041
16,CAACTGCG,-0.0825
17,CTCCCTCC,-0.0125
18,AAAGAGGG,-0.168
19,AGCGCTAC,0.112
20,CTGCCATA,0.0233
21,GTAGATGA,-0.148
22,GGCGAAAC,0.194
23,TGGATCCA,-0.00613
24,ATTTGCGC,0.215
25,GATCCCAC,0.0388

row,Sequence,PBM E-score
1,AATCTTAG,-0.171
2,AGTGTTAT,0.0404
3,CCCATCTA,0.0409
4,ACACCATA,-0.136
5,ACTACGTA,0.0393
6,ATGATCCA,-0.0202
7,AGCATATC,-0.0219
8,AATATTGT,-0.0103
9,GCGTTTGA,-0.152
10,AATCTAAC,-0.0965
11,TAACCATA,-0.208
12,AATTCGCC,0.101
13,ATAGCTGC,-0.172
14,GCGGGCAA,0.0958
15,CTACGTGA,-0.165
16,CCCAACTA,-0.0895
17,CCCGAGAG,0.312
18,GGTTGGCA,-0.178
19,CTAAGTCA,-0.185
20,CATTCGTC,-0.0122
21,AAGCCTGA,-0.238
22,GTACTAGA,-0.109
23,CGCGGTCA,0.208
24,ACTTACAG,-0.299
25,ACTTAGTA,-0.0571

row,Sequence,PBM E-score
1,GAACCTAC,0.00224
2,ACATCGGG,0.219
3,ATACAGAG,-0.266
4,GCCGCAAC,0.117
5,AGTACGTG,-0.138
6,GGTGCCCA,-0.106
7,ATCAACGC,-0.16
8,GCTGACAA,-0.0427
9,AAAATCCC,0.0176
10,CTTGCAAC,-0.201
11,CCTGTGCC,-0.159
12,GATAGCGA,0.0711
13,ATACCGCA,0.284
14,CTGGTCCA,-0.0613
15,CCAGCTAG,-0.36
16,AGAAGAAG,-0.0942
17,CTCAGGCA,0.128
18,CAGTCTCG,-0.0711
19,CTCTACTA,-0.265
20,ATACAGGG,0.0187
21,ATACGCGA,-0.0162
22,AATACGAT,0.0467
23,CCGATGCA,0.242
24,CCGGATCA,0.364
25,GTTGGCGA,0.0633

row,Sequence,PBM E-score
1,ACACTTAT,0.0354
2,ACCGTACT,0.0174
3,AATCCTCT,-0.222
4,CACTTCAG,-0.0738
5,ACCGTTGA,0.0992
6,CTGACCCC,0.038
7,CGGCTTGC,0.184
8,AACACAGC,-0.037
9,ATCTATAC,-0.0485
10,CCACTCCC,0.119
11,CAGGCGGC,0.114
12,CATATCGA,0.0363
13,GGTTGGGA,-0.07
14,CTCAACAC,-0.0682
15,ACTTGTGA,-0.264
16,ATTCGAGA,-0.171
17,AAGGTATG,-0.0845
18,GGTAGTAC,-0.0713
19,GACATCAA,0.102
20,CTCCCGCA,0.22
21,ACCCACCC,0.184
22,AGAAAGCA,-0.127
23,TGAAAACA,-0.167
24,AACACAAG,-0.246
25,ACTCCGTC,0.3

row,Sequence,PBM E-score
1,GCCCGAAC,0.298
2,AGCTAGCC,-0.192
3,CCTCAACC,-0.123
4,CTCTCGGC,0.318
5,AAGTGGGA,-0.0321
6,GGAAGGAA,0.0733
7,AGTCCCTC,-0.175
8,CTTGCAGC,-0.137
9,AACGTAAG,-0.18
10,GATTCTGA,-0.0232
11,CAATACTG,-0.214
12,ATCTTTAC,-0.0607
13,ATTAGATC,0.0167
14,GCAAGCTA,-0.291
15,CACCTACA,-0.269
16,AACTGACT,-0.0432
17,GCGTACAC,-0.114
18,ATCGGATG,0.346
19,TTAGCTAA,-0.192
20,ACTACAAA,-0.114
21,ACGATCCG,0.302
22,ATTGCGTG,0.0241
